# Test results reported in PubChem BioAssay AID1466 (National Center for Advancing Translational Sciences (NCATS), 2008).
# In all, about 200,000 compounds went through this assay and about 10 (0.005%) were called active. Inconclusive results, whose numbers are uncertain, are shown with a selection of clear calls. Calls follow the shape of the dose curve; as a rule, active = well fitted inhibition curve with a large enough effect; inconclusive = small, poorly fitted or top-dose-only effect, or effect the other way, or another doubt; inactive = no such curve, though single readings can be large or run the other way. Potencies of inconclusive entries are left out as doubtful fits.
# Molecular target: Lysosomal alpha-glucosidase (Homo sapiens) (UniProt P10253)
# Assay: qHTS Assay for Inhibitors of Human alpha-Glucosidase as a Potential Chaperone Treatment of Pompe Disease;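 as to activity change, negative = inhibition: plate controls were uninhibited enzyme wells for no effect and no-enzyme background for full effect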
# Settings: purified human GAA, 4-MU-alpha-glucoside fluorescence; activity change, negative = inhibition: at 76.9 µM (top of the series) unless noted
# How it was run: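 Fluorescence at Ex 365/Em 440 nm from 4-methylumbelliferone reported enzyme activity after 20 min at room temperature. Reactions used 4 nM enzyme and 400 uM substrate at pH 5.0; curves fitted with the Hill equation.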
# Potency is read from the fitted curve at half-maximal effect; tags tell the direction and shape of the fitted curve.
Compound,Potency,"activity change, negative = inhibition"
COc1ccc(S(=O)(=O)c2ccc(O)cc2)cc1,"inconclusive [inhibitor, partial curve, poor fit]",
CCOC(=O)Cc1c(C)nc2c(-c3ccc(Cl)cc3)c(C)nn2c1C,,inconclusive: 11.2% [activator]
CCc1nc(Nc2ccc(N3CCN(C(C)=O)CC3)cc2)c2oc3ccccc3c2n1,"inconclusive [inhibitor, full curve, poor fit]",
Cc1nc(NS(=O)(=O)c2ccccc2)sc1C(=O)NN,inactive,
O=C1/C(=C/c2ccc(O)cc2)CCc2ccc([N+](=O)[O-])cc21,"inconclusive [inhibitor, single point]",
O=C(NCc1ccccc1)c1cc(S(=O)(=O)N2CCC3(CC2)OCCO3)ccc1F,"inconclusive [inhibitor, partial curve]",
CC(=O)Nc1ccc(S(=O)(=O)N(CCc2ccccc2)CC(=O)N/N=C/c2ccc(C(=O)O)cc2)cc1,"inconclusive [inhibitor, partial curve, poor fit]",
COc1ccccc1NC(=O)c1ccc(NC(=O)Cc2n[nH]c(=O)c3ccccc23)cc1,"inconclusive [inhibitor, single point]",
CCn1cc(C2C(C(=O)Nc3cc(C)ccn3)=C(C)NC3=C2C(=O)CC(C)(C)C3)c(C)n1 (configuration not stated),"inconclusive [activator, single point]",
N#Cc1nc(-c2cccs2)oc1NCc1ccco1,"inconclusive [activator, single point]",
CCCc1cc(=O)[nH]c(SCC(=O)c2cc(C)n(CCC)c2C)n1,"inconclusive [activator, partial curve]",
CCCCN(CCCNC(=O)CN1C(=O)COc2ccccc21)c1ccccc1,"inconclusive [inhibitor, single point]",
COc1ccccc1-c1cc2nc(C)cc(C)n2n1,"inconclusive [inhibitor, full curve, poor fit]",
CCNC(=S)NCc1ccc(OC)c(OC)c1,,inconclusive: 8.85% [activator]
COC(=O)c1c(C)nn(-c2ccc(F)c(Cl)c2)c1-c1cc(C)on1,,inconclusive: -16.4% [inhibitor]
COCCCn1c(CCC(=O)O)ccc1-c1cccs1,"inconclusive [activator, partial curve]",
Cc1ccc(OCc2n[nH]c(=S)n2-c2ccccc2)cc1C,,inconclusive: -21% [inhibitor]
CCOC(=O)/C(=C\C=C\N1CCOCC1)C(C)=O,"inconclusive [inhibitor, single point]",
CN(C)CCCNCC(=O)Nc1ccccc1N1CCOCC1,"inconclusive [inhibitor, partial curve]",
CSc1nc(C)c(Oc2ccccc2)c(=O)n1C,,inconclusive: 4.35% [activator]
O=C(O)Cc1c(O)ccc2ccccc12,"inconclusive [activator, partial curve]",

Compound,Potency,"activity change, negative = inhibition"
CCCCn1c(N)c(NCC)c(=O)[nH]c1=O,"inconclusive [activator, single point]",
CC(C)c1ccc(-c2nnn(Cc3nc4ccccc4s3)n2)cc1,,inconclusive: -17% [inhibitor]
O=C(NCCCN1CCCC1)c1ccc2c(Cl)c3c(nc2c1)CCCC3,"inconclusive [inhibitor, partial curve]",
COc1ccccc1N1CCN(S(=O)(=O)c2ccc3c4c(cccc24)C(=O)N3)CC1,"inconclusive [inhibitor, single point]",
Cc1cccc(N2CCN(C(=S)Nc3ccc4nc5n(c(=O)c4c3)CCCCC5)CC2)c1C,,inconclusive: -18.5% [inhibitor]
O=C(COc1ccccc1Cl)OCC(=O)N1CCN(S(=O)(=O)c2ccccc2)CC1,"inconclusive [inhibitor, full curve, poor fit]",
O=C(CNC(=O)c1ccc(F)cc1)N/N=C/c1ccc(O)c([N+](=O)[O-])c1,"inconclusive [inhibitor, single point]",
COc1cc(OC)c(-c2nc3ccccc3s2)cc1OC,"inconclusive [activator, partial curve]",
COCCCNC(=S)Nc1ccc(N2CCCCC2)cc1,inactive,
O=c1c2ccccc2nc(-c2ccccc2)n1CCCn1ccnc1,"inconclusive [inhibitor, full curve, poor fit]",
CN(Cc1ccsc1)C(=O)CCc1nnc(Cc2c[nH]c3ccccc23)o1,"inconclusive [inhibitor, full curve, poor fit]",
CC1=NN(C(=O)c2c(Br)cnn2C)C(O)(C(F)(F)F)C1 (configuration not stated),,inconclusive: 20.2% [activator]
CCCc1[nH]nc2c1C(c1cc(OC)ccc1F)C(C#N)=C(N)O2 (configuration not stated),"inconclusive [inhibitor, single point]",
CCOc1cc(C(=O)N2CCCC2)cc(OCC)c1OCC,"inconclusive [inhibitor, partial curve]",
CC(C)C1Cc2nc(Cl)c(C#N)cc2CO1 (configuration not stated),"inconclusive [inhibitor, single point]",
Cc1cc2nc(-c3ccc(SCC(=O)Nc4ccc(S(=O)(=O)NC5CC5)cc4)nc3)[nH]c2cc1C,"inconclusive [inhibitor, partial curve, poor fit]",
O=C(C(c1ccccc1)c1ccccc1)N1CCN(CCN2C(=O)c3cccc4cccc(c34)C2=O)CC1,"inconclusive [inhibitor, full curve]",
CCCn1c(SCC(=O)Nc2ccc3c(c2)OCCO3)nnc1-c1ccco1,"inconclusive [inhibitor, partial curve, poor fit]",
CN(CCOC(=O)/C=C/c1ccco1)Cc1ccccc1,inactive,
Nc1nnc(N2CCCCCC2)s1,"inconclusive [inhibitor, single point]",
CCC(CC)NC(=O)COC(=O)c1cccc(C)c1O,"inconclusive [inhibitor, full curve, poor fit]",
